# Laboratory results published in PubChem BioAssay AID686978 (National Center for Advancing Translational Sciences (NCATS), 2013).
# In all, about 420,000 compounds went through this assay and about 64,000 (15%) were called active. Inconclusive results, whose numbers are uncertain, are shown with a selection of clear calls. Calls come from the whole dose curve; as a rule, active = well fitted inhibition curve with a large enough effect; inconclusive = small, poorly fitted or top-dose-only effect; inactive = flat fitted curve, though single readings scatter. No potency is given beside an inconclusive call; the fits are too rough.
# Test: qHTS for Inhibitors of human tyrosyl-DNA phosphodiesterase 1 (TDP1): qHTS in cells in absence of CPT; note: nearly all actives have a fitted effect of over 55% in size
# Details: DT40 Tdp1-/- hTDP1 cells, no CPT, ATP luminescence, 48 h; activity change, negative = growth inhibition: at 46.2 µM (top of the series)
# Method in brief: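 DT40 Tdp1-/-;hTDP1 cells, no CPT (DMSO vehicle only), 400 cells/well; compounds pin-transferred; ≥48 hr, 37 °C; CellTiter-Glo 30 min RT dark, luminescence read.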
# % is set by controls: 0 for no effect and ±100 for the full control effect; potency is the fitted concentration of half-maximal effect; tags give direction and shape of the fitted curve.
Compound,Potency,"activity change, negative = growth inhibition"
CCc1ccc(-c2nc(CS(=O)CC(=O)NCCc3ccccc3)c(C)o2)cc1 (stereo not drawn),inactive,–
Cc1cc2c(cc1C)-n1nnnc1C(N1CCN(c3ncccc3C#N)CC1)C(=O)N2 (stereo not drawn),"inconclusive [inhibitor, single point]",–
O=C(NCCC1=CCCCC1)C1CCN(C(=O)N2CCOc3ccc(Cl)cc32)CC1,"inconclusive [inhibitor, single point]",–
Cc1csc(NC(=O)[C@@H](NC(=O)c2ccccc2)C(C)C)n1,active: 8.2 µM,–
Cc1cn2c(=O)c(S(=O)(=O)Nc3ccc(F)cc3F)c(C)nc2s1,"inconclusive [inhibitor, partial curve, poor fit]",–
Clc1ccc(-c2csc(N/N=C/c3cccnc3)n2)c(Cl)c1,"inconclusive [inhibitor, single point]",–
Cc1cc(C)cc(C(=O)NCC(c2ccc(N(C)C)cc2)N2CCCC2)c1 (stereo not drawn),active: 16.4 µM,–
CN(Cc1ccccc1)c1ccc(-c2nc(-c3ccncc3)no2)cc1[N+](=O)[O-],active: 18.4 µM,–
O=C1C=C(c2cccc(CO)c2)C[C@@H](c2ccc3c(c2)OCO3)C1,"inconclusive [inhibitor, single point]",–
O=C(Nc1cccnc1)c1cccc(NC(=O)c2ccco2)c1,"inconclusive [inhibitor, single point]",–
CC(CCc1ccccc1)NC(=O)c1ccc2nc(N3CCOCC3)sc2c1 (stereo not drawn),"inconclusive [inhibitor, partial curve]",–
CC1CCCN(CCCNC(=O)C2CC(=O)N(CCc3ccccc3)C2)C1 (stereo not drawn),inactive,–
O=C(c1ccc2c(=O)n(Cc3ccc4c(c3)OCO4)c(=S)[nH]c2c1)N1CCCCC1,"inconclusive [inhibitor, single point]",–
CCC(=O)Nc1cccc(-c2nc3ccc(C)cc3o2)c1,"inconclusive [inhibitor, single point]",–
O=C1Nc2ccccc2N(C(=O)c2c(F)cccc2F)C1c1nc2ccccc2[nH]1 (stereo not drawn),inactive,–
COc1ccc(-c2[nH]ncc2-c2ccc3c(c2)OCCO3)c(O)c1,active: 7.31 µM,–
CCn1ncc(Br)c1C(=O)Nc1ccc(C(=O)OC(C)C)cc1,"inconclusive [inhibitor, partial curve, poor fit]",–
Oc1ccccc1Nc1nc2ccccc2n2nnnc12,"inconclusive [inhibitor, partial curve]",–
CN(C)c1ccc(N=Nc2ccc(S(N)(=O)=O)cc2)cc1,inactive,–
COc1cccc(C(=O)NC(C)c2ccc(-c3ccccc3)cc2)c1OC (stereo not drawn),"inconclusive [inhibitor, single point]",–
Cc1ccc(C(=O)NCCCNc2ccc(C(F)(F)F)cc2[N+](=O)[O-])cc1,"inconclusive [inhibitor, single point]",–
O=C(Cc1ccc(OCc2ccccn2)cc1)NO,"inconclusive [inhibitor, single point]",–

Compound,Potency,"activity change, negative = growth inhibition"
CC(C)CN1C(=O)c2ccc(NC(=O)C3CC3)cc2C1=O,inactive,–
CCOC(=O)c1cc2c(=O)n3cccc(C)c3nc2n(Cc2ccco2)c1=NC(=O)c1ccc(C)cc1,inactive,–
Cc1c(C(=O)NC(C)c2ccncc2)oc2ccccc12 (stereo not drawn),inactive,–
CN(c1cccc(NC(=O)c2ccccc2N(Cc2ccccc2)S(C)(=O)=O)c1)S(C)(=O)=O,"inconclusive [inhibitor, partial curve, poor fit]",–
Cc1cccc(/C=N/c2sc3c(c2C(=O)OC(C)(C)C)CCN(C)C3)c1O,"inconclusive [inhibitor, single point]",–
COc1ccccc1N/C(=N/S(=O)(=O)c1ccc(Cl)cc1)c1ccccc1,–,inconclusive: -30.2% [inhibitor]
O=C(c1ccc(=O)n(Cc2ccccc2)n1)N1CCN(C/C=C/c2ccccc2)CC1,"inconclusive [inhibitor, single point]",–
COc1ccc(-c2cnc(SCC(=O)Nc3cc(C)on3)n2Cc2ccco2)cc1,"inconclusive [inhibitor, partial curve]",–
COC(=O)C1=C(C)N(Cc2ccccc2)C(=NCc2ccco2)N[C@H]1c1cccc(F)c1,active: 18.4 µM,–
CSCCC(c1nnnn1Cc1ccccc1)N1CCN(C/C=C/c2ccccc2)CC1 (stereo not drawn),"inconclusive [inhibitor, single point]",–
CC(=O)c1cccc(-c2ccnc3c2CC(C(=O)Nc2ccccc2)O3)c1 (stereo not drawn),"inconclusive [inhibitor, full curve]",–
Cc1[nH]c2ccccc2c1N=Nc1c(C)n(C)n(-c2ccccc2)c1=O,"inconclusive [inhibitor, single point]",–
O=C(CSc1nnc(CNC(=O)C23CC4CC(CC(C4)C2)C3)n1-c1ccccc1)Nc1ccc(F)cc1,"inconclusive [inhibitor, single point]",–
COc1ccc(-c2c(C)c3ccc(O)c(CN4CCCC(C)C4)c3oc2=O)cc1OC (stereo not drawn),inactive,–
COCCCNC(=O)c1ccc2c3c(onc13)-c1ccccc1C2=O,active: 14.6 µM,–
O=C(CCS(=O)(=O)c1ccccc1)Nc1nc2cc3c(cc2s1)OCCO3,"inconclusive [inhibitor, single point]",–
O=C1CCc2cc(S(=O)(=O)NC(C(=O)Nc3cccc(F)c3)c3ccccc3)ccc2N1 (stereo not drawn),"inconclusive [inhibitor, single point]",–
N#C/C(=C\c1cc(Cl)cc(Cl)c1O)C(=O)NC1CCCCC1,"inconclusive [inhibitor, partial curve]",–
COc1cccc(NC(=O)CSc2nc3ccccc3c(=O)n2Cc2cccs2)c1,"inconclusive [inhibitor, single point]",–
Nc1nc(NCCCN2CCOCC2)nc(Nc2ccc(Cl)cc2)c1[N+](=O)[O-],"inconclusive [inhibitor, single point]",–
Cc1ccc(C)c(Nc2nnc(-c3ccc(C)c(S(=O)(=O)NCC4CCCO4)c3)c3ccccc23)c1 (stereo not drawn),active: 5.17 µM,–
